Experimental data published in the supplement of paper PMC3334620.
In all, about 33,000 sequences were measured (“E-score (-0.5 to 0.5)”: median about -0.032, highest 2% from about 0.36 on). The list shows a part of the results.

These sequences were tested against T1, Sko1 (UniProt Q02100) (assay: PBM E-score (8-mer binding enrichment) (E-score (-0.5 to 0.5)); higher = stronger / more preferred TF binding; most listed sequences are background and not binding sites). Conditions: protein concentration: 200 nM; construct: GST-full length.
T1 sequence: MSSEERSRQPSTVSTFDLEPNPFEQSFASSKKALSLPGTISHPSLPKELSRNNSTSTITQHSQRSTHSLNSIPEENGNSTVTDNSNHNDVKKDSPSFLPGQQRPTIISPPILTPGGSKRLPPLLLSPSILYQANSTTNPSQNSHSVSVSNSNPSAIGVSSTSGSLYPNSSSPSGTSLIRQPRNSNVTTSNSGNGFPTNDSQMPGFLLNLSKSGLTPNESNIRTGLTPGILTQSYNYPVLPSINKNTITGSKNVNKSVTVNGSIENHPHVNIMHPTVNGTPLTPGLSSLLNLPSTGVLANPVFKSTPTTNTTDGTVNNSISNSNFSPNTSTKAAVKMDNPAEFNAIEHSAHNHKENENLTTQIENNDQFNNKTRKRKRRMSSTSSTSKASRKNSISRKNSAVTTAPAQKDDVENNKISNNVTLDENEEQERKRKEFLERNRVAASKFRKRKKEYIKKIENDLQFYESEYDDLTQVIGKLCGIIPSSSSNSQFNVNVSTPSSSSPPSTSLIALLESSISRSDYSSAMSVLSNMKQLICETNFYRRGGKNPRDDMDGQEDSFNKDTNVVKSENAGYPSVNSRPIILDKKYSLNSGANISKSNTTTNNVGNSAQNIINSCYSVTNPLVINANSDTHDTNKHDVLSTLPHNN
Experimental: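 Universal 'all 10-mer' protein binding microarrays (Agilent AMADID 015681) probed with GST-tagged S. cerevisiae TFs (full-length or DBD) made by in vitro transcription/translation (PURExpress), about 100-200 nM. Bound TF was detected with fluorescent anti-GST. Each ungapped 8-mer (which stands for itself and its reverse complement) is scored by the PBM enrichment score (E-score), a modified Wilcoxon-Mann-Whitney statistic from -0.5 to +0.5, computed with the Universal PBM Analysis Suite. Scale: above 0.35 generally sequence-specific binding.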

Sequence | PBM E-score
TCGACACA | 0.0874
GGTGCGAA | -0.0274
GGTTCAAC | -0.0599
AAGATAGT | -0.0319
ACAAGCCG | -0.174
GAACACGA | 0.0541
GTCGGGAA | -0.105
CCCCCGTA | -0.209
CTACTGAA | 0.0759
TACTTCAA | 0.173
CGGGCAAG | -0.102
CCTACCTC | -0.227
ATGACCCA | 0.112
CCCATAGC | -0.155
CTATATTA | 0.253
CCCTGGAG | -0.194
ATTGTAGG | 0.102
AGGGGACA | -0.312
CCAAATTC | -0.055
ATACGTAC | 0.473
ATTACAGA | 0.0438
AAGAAGTG | -0.0945

Sequence | PBM E-score
CGTTCATC | 0.101
CATGTCTC | -0.0101
CAAGGTAC | 0.0328
CGTCTGAG | 0.0173
CAACGTAA | 0.447
ATAATTGC | 0.16
CGATAAGA | -0.0377
AGAGTTGG | -0.0544
GGTGGCAA | -0.169
CCCTGAGC | -0.145
ACTTCACC | -0.0315
AGCTTATA | -0.00432
CATTGGAA | 0.165
ACCATCAG | -0.131
CAAAGTAG | -0.0207
AATCTCCA | 0.0527
CGGGGGAC | -0.361
ACTATAGG | -0.0997
AGGCAGAC | -0.254
GACTTCTA | -0.19
ACTCGACT | -0.277
CCTAAGTC | -0.227

Sequence | PBM E-score
AGTGAAAT | 0.147
ACGGTGGA | -0.253
GAGCCCAC | -0.173
CCTGAACA | -0.0824
CTGGCCTC | -0.297
CCTCTAAG | -0.185
GGGCGTAA | -0.0261
AACTTCAG | -0.00953
AGGAGTTC | -0.12
GTGATTGA | 0.176
CGCAAACC | 0.00853
AAGTGTAC | 0.121
GGTTGAAA | -0.0145
AAGGAAGA | -0.0665
ACCTGCTG | -0.0289
AAACCCGA | -0.0523
AGGCATGC | -0.0864
CGCGAGAC | 0.125
CCCATGTA | -0.014
GGCCTCTA | -0.311
GAGATAGA | -0.0409
TCCATGGA | 0.0902

Sequence | PBM E-score
TATGCCCA | -0.205
AAATGCAC | 0.0801
ATCAAGTG | -0.0569
TAGTGTAA | 0.135
CCATATTA | 0.0207
TCGCGGCA | -0.261
CACGACTG | -0.224
CCTACGGC | -0.34
ATGCGATC | 0.0716
GATCATAA | 0.203
AGTCCTAC | 0.0377
AAACATAC | 0.14
CATTAATC | 0.155
AGGACCAT | -0.0107
GGAGGTCA | -0.302
CGAGCTAC | -0.0876
AGGTTGCG | -0.00639
TACGGTCA | 0.17
ACCGTTGC | -0.221
ATGTCAAG | 0.187
